The campaign covered roughly 410,000 compounds. About 1,200 (0.29%) were called active. Inconclusive means that the source gave no clear call. Such entries were picked first, then a sample of the others. Calls come from the whole dose curve; as a rule, active = well fitted activation curve with a large enough effect; inconclusive = small, poorly fitted or top-dose-only effect; inactive = flat fitted curve, though single readings scatter. A potency beside an inconclusive call is a rough fit, not a confirmed value.
Experiment: qHTS of Nrf2 Activators; note: nearly all actives have a fitted effect of over 65% in size
Settings: AREc32 ARE-luciferase reporter (MCF7-derived line), luminescence, 24 h; activation: at 46.1 µM (top of the series)
Procedure, shortened: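 Nrf2 activation is followed as ARE-luciferase induction in the AREc32 line after one day of compound treatment; luminescence is read with Steady-Glo.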
For `COc1ccc(C=C2Cc3ccccc3C2=O)cc1`, the Potency was inconclusive: 20 µM [activator, single point]. With `CCOc1ccc(S(=O)(=O)Nc2ccccc2C(=O)NCC2CCCO2)cc1` (stereo not drawn) the Potency was “inactive”. With `COc1ccc(CCN2C(=O)c3[nH]nc(-c4ccccc4O)c3C2c2ccc(OC)c(OC)c2)cc1` (stereo not drawn) the Potency was “inactive”. With `O=C(Nc1ccccc1[N+](=O)[O-])c1cc(S(=O)(=O)N2CCOCC2)cs1` the Potency was inconclusive: 20 µM [activator, single point]. With `Cc1cccc(NC(=O)CSc2nnc(-c3ccco3)c(-c3ccco3)n2)c1C` the Potency was inconclusive: 12.6 µM [activator, partial curve, poor fit]. For `O=C(/C=C/c1ccco1)c1cccc([N+](=O)[O-])c1`, the Potency was inconclusive: 31.6 µM [activator, partial curve, poor fit]. With `COc1cccc(NC(=O)CSc2nnc(-c3ccco3)c(-c3ccco3)n2)c1` the Potency was inconclusive: 10 µM [activator, partial curve, poor fit]. In the case of `COc1cc(C(=O)NNC(=O)/C=C/c2ccco2)cc(OC)c1OC`, the Potency is reported as inconclusive: 25.1 µM [activator, single point]. In the case of `CSc1ccccc1NC(=O)c1csc(C)c1`, the Potency is reported as inconclusive: 17.8 µM [activator, partial curve, poor fit]. In the case of `O=C(NC1CCS(=O)(=O)C1)c1cn(-c2ccccc2)nc1-c1ccccc1` (stereo not drawn), the Potency is reported as “inactive”. For `O=C(C=Cc1ccco1)c1ccc([N+](=O)[O-])cc1`, the Potency was inconclusive: 22.4 µM [activator, single point]. For `COC(=O)c1cccc(N2C(=O)C(Cl)=C(N3CCOCC3)C2=O)c1`, the Potency was inconclusive: 31.6 µM [activator, single point]. In the case of `O=C(/C=C/c1c[nH]c2ccccc12)c1ccccc1`, the Potency is reported as inconclusive: 11.2 µM [activator, partial curve, poor fit]. With `Clc1ccc(/C=N/Nc2nnc(Cl)c3ccccc23)cc1` the Potency was active: 1.26 µM. For `Cn1c(N)c(C(=O)/C=C/c2ccccc2)c(=O)[nH]c1=O`, the Potency was inconclusive: 17.8 µM [activator, partial curve, poor fit]. For `COc1cc2sc3ccc(C#Cc4ccccn4)cc3c(=O)c2cc1OC`, the Potency was “inactive”. With `O=C(CC1OC(=O)c2ccccc21)c1ccco1` (stereo not drawn) the Potency was inconclusive: 15.8 µM [activator, partial curve, poor fit]. In the case of `Cc1ccc2c(c1)N(C(C)C(=O)NCc1ccc3c(c1)OCO3)C(=O)CO2` (stereo not drawn), the Potency is reported as “inactive”. In the case of `Oc1ccc2ccccc2c1N=Nc1ccc(F)cc1`, the Potency is reported as inconclusive: 1 µM [activator, full curve, poor fit]. For `CCc1c(Nc2ccccc2Cl)nc(N)[nH]c1=O`, the Potency was inconclusive: 22.4 µM [activator, single point]. For `CCOc1ccc(N(CC(=O)Nc2ccccc2Cl)S(C)(=O)=O)cc1`, the Potency was “inactive”. With `N=C1S/C(=C\c2ccco2)C(=O)N1c1ccc2c(c1)OCO2` the Potency was “inactive”. In the case of `Fc1cccc(-c2csc(-c3ccno3)n2)c1`, the Potency is reported as inconclusive: 20 µM [activator, partial curve, poor fit]. In the case of `Cc1ccc(Nc2nc(Cl)c(C=O)s2)cc1Cl`, the Potency is reported as inconclusive: 17.8 µM [activator, single point]. In the case of `O=C(CSc1nccc(-c2cccs2)n1)Nc1cccc(Cl)c1Cl`, the Potency is reported as active: 2.24 µM. For `CCOC(=O)C1CCN(C(c2ccccn2)c2c(C)[nH]c3ccccc23)CC1` (stereo not drawn), the Potency was inconclusive: 31.6 µM [activator, single point]. With `CCOC(=O)c1cc([N+](=O)[O-])c([N+](=O)[O-])cc1NC(C)=O` the Potency was inconclusive: 17.8 µM [activator, single point]. With `Cc1ccc(C)c(C(=O)COc2ccccc2[N+](=O)[O-])c1` the Potency was active: 22.4 µM. For `CCc1ccc(NC(=O)CN2C(=O)CSc3ccc(S(=O)(=O)N(C)C)cc32)cc1`, the Potency was “inactive”. In the case of `CC(=O)C(=Cc1ccccc1)c1ccccc1`, the Potency is reported as inconclusive: 12.6 µM [activator, partial curve, poor fit]. For `CC(C)(C)C(=O)/C=C/Nc1ccccc1O`, the Potency was inconclusive: 7.08 µM [activator, partial curve, poor fit]. In the case of `Cc1cc(C)n2c(Br)c(CSc3nc4ccccc4o3)nc2n1`, the Potency is reported as inconclusive: 17.8 µM [activator, single point]. With `O=C(Nc1nnc(-c2ccccc2F)s1)c1ccccc1F` the Potency was active: 3.16 µM. In the case of `O=C(Nc1csc([N+](=O)[O-])c1)Nc1ccccc1Cl`, the Potency is reported as inconclusive: 17.8 µM [activator, single point]. In the case of `c1cncc(-c2nc(-c3ccco3)cs2)c1`, the Potency is reported as inconclusive: 28.2 µM [activator, single point]. With `Cc1ccc2nc(N(CCN3CCOCC3)C(=O)CCS(=O)(=O)c3ccccc3)sc2c1` the Potency was inconclusive: 25.1 µM [activator, single point]. In the case of `S=c1[nH]nc(-c2cc(-c3ccccc3)n[nH]2)n1/N=C/C(Br)=C/c1ccccc1`, the Potency is reported as inconclusive: 5.01 µM [activator, single point]. For `COc1ccc(C(=O)COC(=O)CN2CC(=O)Oc3ccccc32)cc1Br`, the Potency was active: 14.1 µM. In the case of `COc1cc2sc3cc(NCC[C@@H]4CCCN4C)ccc3c(=O)c2cc1OC`, the Potency is reported as inconclusive: 6.31 µM [activator, partial curve, poor fit]. With `Cc1nc(-c2ccccc2)sc1C(=O)/C=C/c1ccccc1` the Potency was inconclusive: 11.2 µM [activator, partial curve, poor fit]. For `Cc1cccc(CSc2cccc3cccnc23)c1`, the Potency was active: 22.4 µM. With `COc1ccccc1NC(=O)CSc1ncnc2c1oc1ccccc12` the Potency was inconclusive: 15.8 µM [activator, partial curve, poor fit]. For `N#C/C(=C\c1cc(Cl)cc(Cl)c1O)C(=O)NC1CCCCC1`, the Potency was “inactive”. In the case of `O=C(CCS(=O)(=O)c1ccccc1)Nc1nc2cc3c(cc2s1)OCCO3`, the Potency is reported as inconclusive: 22.4 µM [activator, single point]. For `Cc1ccc(C)c(Nc2nnc(-c3ccc(C)c(S(=O)(=O)NCC4CCCO4)c3)c3ccccc23)c1` (stereo not drawn), the Potency was “inactive”. With `Cc1cccc(NC(=S)NCc2ccco2)n1` the Potency was active: 12.6 µM. In the case of `Oc1ccccc1Nc1nc2ccccc2n2nnnc12`, the Potency is reported as inconclusive: 3.98 µM [activator, full curve]. With `O=C(CCCN1C(=O)/C(=C\c2ccccc2)SC1=S)N1CCOCC1` the Potency was inconclusive: 7.94 µM [activator, partial curve]. For `COc1ccc(C(C(=O)NC2CCCCC2)N(C(=O)CCl)c2ccc(OC)cc2)cc1` (stereo not drawn), the Potency was “inactive”. With `Cc1ccc(C(=O)NCc2nnc(SCC(=O)NC(C)c3ccccc3)n2C)cc1` (stereo not drawn) the Potency was “inactive”. For `CC(C)NC(=O)c1nn2c(C(F)(F)F)cc(-c3ccco3)nc2c1Cl`, the Potency was inconclusive: 12.6 µM [activator, partial curve, poor fit]. For `C/C(=N\Nc1cc(C(F)(F)F)ccc1Cl)c1ccccc1O`, the Potency was active: 11.2 µM. For `Cc1sc(NC(=O)CCS(=O)(=O)c2ccccc2)c(C#N)c1C`, the Potency was inconclusive: 14.1 µM [activator, single point]. With `CC(=Nc1ccccc1)C1=C(O)CSC1=O` the Potency was inconclusive: 17.8 µM [activator, single point]. With `O=C1NC(=Nc2ccccc2)S/C1=C\c1cccs1` the Potency was inconclusive: 11.2 µM [activator, partial curve, poor fit]. With `CSC1=NC(C)(C)C=C(/C=C/c2ccc(Cl)cc2)N1` the Potency was active: 5.62 µM. In the case of `COc1ccc(Cl)cc1NC(=O)CC(=O)Nc1cc(Cl)ccc1OC`, the Potency is reported as inconclusive: 11.2 µM [activator, partial curve]. In the case of `COc1ccc(Cl)cc1C(=O)NCc1ccco1`, the Potency is reported as inconclusive: 17.8 µM [activator, single point]. For `COc1ccc(C(CC(=O)c2ccc3c(c2)OCO3)C(=O)O)cc1OC` (stereo not drawn), the Potency was “inactive”. In the case of `O=C(/C=C/Nc1ccccc1)c1ccc(Cl)cc1Cl`, the Potency is reported as “inactive”. With `CCc1cccc(C)c1NC(=O)CSc1nc(C)c(C)o1` the Potency was “inactive”. In the case of `O=[N+]([O-])c1ccccc1OCc1nc(-c2cccs2)no1`, the Potency is reported as inconclusive: 14.1 µM [activator, partial curve, poor fit]. In the case of `O=C(Cn1ncc2c1-c1ccccc1OC2)N1CCN(c2ccccc2)CC1`, the Potency is reported as “inactive”. In the case of `COc1cccc2c(C)cc3nnc(SCC(=O)Nc4ccc(C)cc4)n3c12`, the Potency is reported as “inactive”. With `COc1cc(CN2CCc3ccccc3C2)ccc1O` the Potency was “inactive”. In the case of `O=C(CCCN1C(=O)/C(=C/c2ccccc2Cl)SC1=S)N1CCCC1`, the Potency is reported as inconclusive: 3.55 µM [activator, single point]. With `O=c1[nH]n2c(-c3ccccc3)nc(O)c2c2ccccc12` the Potency was inconclusive: 11.2 µM [activator, partial curve, poor fit]. With `CCn1nnnc1SCC(=O)Nc1nc(-c2cccs2)cs1` the Potency was inconclusive: 12.6 µM [activator, partial curve, poor fit]. For `Cc1ccc(C)c(-c2csc(NC(=O)C3=COCCO3)n2)c1`, the Potency was “inactive”. With `O=C(Cn1ncc(Cl)c(Cl)c1=O)N1CCc2ccccc21` the Potency was inconclusive: 0.631 µM [activator, full curve, poor fit]. For `COc1ccc2c(n1)Sc1nc3ccccc3nc1N2`, the Potency was active: 4.47 µM. In the case of `Cc1nn(-c2cccc(C(F)(F)F)c2)c(Cl)c1/C=N/n1cnnc1`, the Potency is reported as inconclusive: 20 µM [activator, single point]. In the case of `C=C1C(=O)O[C@@H]2[C@H]1[C@@H](OC(=O)/C(C)=C/C)C/C(C)=C\C(=O)/C=C(\C)[C@@H]2O`, the Potency is reported as inconclusive: 3.16 µM [activator, partial curve, poor fit].
Potency is the fitted concentration of half-maximal effect; tags give direction and shape of the fitted curve.
